# Measured values: PubChem BioAssay AID602179 (National Center for Advancing Translational Sciences (NCATS), 2012)
# Out of some 390,000 compounds screened, about 360 (0.092%) were called active. The shares of active, inactive and inconclusive entries below differ from those in the screen. Calls come from the whole dose curve; as a rule, active = well fitted inhibition curve with a large enough effect; inconclusive = small, poorly fitted or top-dose-only effect; inactive = no such curve, though single readings can be large or run the other way. A potency beside an inconclusive call is a rough fit, not a confirmed value.
# Target: Isocitrate dehydrogenase [NADP] cytoplasmic (Homo sapiens) (UniProt O75874)
# Assay: qHTS for Inhibitors of mutant isocitrate dehydrogenase 1 (IDH1): qHTS; note: nearly all actives have a fitted effect of over 65% in size
# Details: IDH1-R132H enzyme, NADPH consumption, diaphorase/resazurin fluorescence; series mostly up to 76.6 µM; activity change, negative = inhibition: at the top concentration
# Source text: Unbiased genomic sequencing for 22 glioma genomes found recurrent mutation of isocitrate dehydrogenase 1 (IDH1) on chromosome 2q33-a gene encoding the cytosolic isoform of IIDH1associated with the tricarboxylic acid cycle (TCA) that catalyzes the oxidative decarboxylation of isocitrate, yielding alpha-ketoglutarate and CO2 via NADP+ to NADPH conversion. Subsequent studies confirmed the recurrent IDH mutations in up to 70% of secondary gliomas and in 10% of AML cases. […] This in effect defines IDH1 as an oncogene, and provides an extraordinary opportunity to discover chemical probes against mutant IDH1 that may translate into much needed new therapies for glioma and AML patients. […] NIH Chemical Genomics Center [NCGC] NIH Molecular Libraries Probe Centers Network [MLPCN] MLPCN Grant: DA032129 Assay Submitter (PI): Lenny Dang, Agios Pharmaceuticals
# IDH1-R132H (0.5 ug/mL) was dispensed into black, solid-bottom 1536-well plates at 3 uL/well in 20 mM Tris-HCl (pH 7.5), 150 mM NaCl, 10 mM MgCl2, 4 mM beta-ME, and 0.05% protease-free BSA. Then, 23 nL of compounds or DMSO were delivered to each well using a pin tool. A pre-read was run on the Viewlux to identify fluorescent compounds (540 nm excitation filter, 598 nm emission filter, bodipy mirror and 2 second exposure). After 30 minutes of incubation with compound, 3 uL of substrate mix were dispensed (0.016 mM NADPH, 2 mM alpha-KG, 20 mM Tris-HCl (pH 7.5), 150 mM NaCl, 10 mM MgCl2, and 0.05% protease-free BSA). Plates were spun for 1 min at 1000xg and incubated at room temperature for 80 min. Then 1.5 uL of each detection reagent component for the coupling system were added (0.12 mg/mL diaphorase and 0.072 mM resazurin, each in 20 mM Tris-HCl (pH 7.5), 150 mM NaCl, 10 mM MgCl2, and 0.05% protease-free BSA ) The protein, substrate and two detection components were maintained at 4 °C throughout the screen. Additionally, the substrate and resazurin reagents were protected from light. The plates were measured on an Envision plate reader for fluorescence signal using a 540 nm excitation filter and 590 nm emission filter with 10 flashes. 1x and 0x (no-enzyme) IDH1-R132H enzyme control were used to normalize %Activity of identified inhibitors; 0x enzyme values corresponded to 100% Activity (full inhibition), while 1x IDH1-R132H enzyme values were used to normalize 0%Activity (no inhibition). Concentration-response curves were fitted to the signals arising from the resulting fluorescence. The concentration-effect curves were then classified based on curve quality (r2), response magnitude and degree of measured activity, and compounds were subsequently categorized based on their curve class. […] Keywords: isocitrate dehydrogenase, IDH1, IDH1-R132H, MLSMR, MLPCN, NIH Roadmap, qHTS, NCGC
# Potency is the fitted concentration of half-maximal effect; tags give direction and shape of the fitted curve.
Structure (SMILES),Potency,"activity change, negative = inhibition"
C#CC(=O)N(c1cc(OC)ccc1OC)C(C(=O)NC1CCCC1)c1cccs1 (stereo not drawn),"inconclusive: 58.5 µM [inhibitor, single point]",–
COc1cccc(C2c3c(-c4ccccc4)n[nH]c3C(=O)N2c2ccc(C(=O)O)cc2)c1 (stereo not drawn),"inconclusive: 18.5 µM [inhibitor, full curve]",–
O=C(CSc1nc2c([nH]c3ccccc32)c(=O)n1-c1ccc(F)cc1)NCc1ccc(F)cc1,–,inactive: 6.94%
Brc1ccc2c(c1)C(c1cccs1)=NNC(c1cccnc1)=N2,active: 29.3 µM,–
CCOc1ccccc1N(C)C(=O)c1cc2c(=O)n(CC)c3ccccc3c2s1,"inconclusive: 58.5 µM [inhibitor, single point]",–
Cc1ccccc1Cn1ccc(NC(=O)c2cnn3c(C(F)(F)F)cc(-c4ccco4)nc23)n1,–,inactive: -2.39%
Cc1ccccc1Cn1nc(C)c(NC(=O)c2cc(CC(C)C)on2)c1C,inactive,–
CC(C)Cn1c(=O)[nH]c(=O)c2c(C(F)(F)F)cc(-c3ccccc3)nc21,"inconclusive: 52.1 µM [inhibitor, single point]",–
CN(C(=O)CSc1nc(-c2ccc(C(C)(C)C)cc2)c(C#N)c(=O)[nH]1)C1CCCCC1,"inconclusive: 46.5 µM [inhibitor, partial curve]",–
Cc1ccc(Cl)cc1N1CCN(C(=O)CCCCCn2c(=O)[nH]c3ccccc3c2=O)CC1,"inconclusive: 39.8 µM [inhibitor, partial curve]",–
CCCn1cc(S(=O)(=O)c2cc(C)ccc2C)c(=O)c2cc(F)c(N3CCCCCC3)cc21,"inconclusive: 39.8 µM [inhibitor, partial curve]",–
COc1cc(-c2noc(C)c2C#Cc2ccc(N)cc2)cc(OC)c1OC,"inconclusive: 50.1 µM [inhibitor, partial curve, poor fit]",–
O=S(=O)(Nc1cccc(F)c1)c1ccc2[nH]c3c(c2c1)CCCCC3,–,inactive: -4.72%
COCCCNc1oc(COc2ccc(Cl)cc2Cl)nc1C#N,–,inactive: 4.16%
COc1cccc(OC)c1OCc1cc(C2C3CCCC=C3C(C#N)=C(N)C2(C#N)C#N)c(C)cc1C (stereo not drawn),"inconclusive: 46.5 µM [inhibitor, partial curve]",–
C=C(CCC(=O)c1ccccc1)C(=O)c1ccccc1,"inconclusive: 58.5 µM [inhibitor, single point]",–
CCSc1ncc(Cl)c(C(=O)Nc2ccc(S(=O)(=O)Nc3nccc(C)n3)cc2)n1,"inconclusive: 63.1 µM [inhibitor, single point]",–
Cc1ccc(Oc2nc3ccccn3c(=O)c2/C=C(\C#N)c2nc3ccccc3s2)c(C)c1,"inconclusive: 31.6 µM [inhibitor, partial curve]",–
